Publication PMC4336329 (PLoS ONE, 2015)
The whole screen tested about 310,000 compounds, of which about 2,200 (0.71%) showed an effect of 50% or more. The effect is printed as a negative number. The list shows a part of the results.

molecular target: human ether-à-go-go-related gene (hERG) potassium channel (human, UniProt Q12809); test: primary screen, population patch clamp on CHO cells stably expressing hERG
Sequence (Q12809 whole entry, looked up): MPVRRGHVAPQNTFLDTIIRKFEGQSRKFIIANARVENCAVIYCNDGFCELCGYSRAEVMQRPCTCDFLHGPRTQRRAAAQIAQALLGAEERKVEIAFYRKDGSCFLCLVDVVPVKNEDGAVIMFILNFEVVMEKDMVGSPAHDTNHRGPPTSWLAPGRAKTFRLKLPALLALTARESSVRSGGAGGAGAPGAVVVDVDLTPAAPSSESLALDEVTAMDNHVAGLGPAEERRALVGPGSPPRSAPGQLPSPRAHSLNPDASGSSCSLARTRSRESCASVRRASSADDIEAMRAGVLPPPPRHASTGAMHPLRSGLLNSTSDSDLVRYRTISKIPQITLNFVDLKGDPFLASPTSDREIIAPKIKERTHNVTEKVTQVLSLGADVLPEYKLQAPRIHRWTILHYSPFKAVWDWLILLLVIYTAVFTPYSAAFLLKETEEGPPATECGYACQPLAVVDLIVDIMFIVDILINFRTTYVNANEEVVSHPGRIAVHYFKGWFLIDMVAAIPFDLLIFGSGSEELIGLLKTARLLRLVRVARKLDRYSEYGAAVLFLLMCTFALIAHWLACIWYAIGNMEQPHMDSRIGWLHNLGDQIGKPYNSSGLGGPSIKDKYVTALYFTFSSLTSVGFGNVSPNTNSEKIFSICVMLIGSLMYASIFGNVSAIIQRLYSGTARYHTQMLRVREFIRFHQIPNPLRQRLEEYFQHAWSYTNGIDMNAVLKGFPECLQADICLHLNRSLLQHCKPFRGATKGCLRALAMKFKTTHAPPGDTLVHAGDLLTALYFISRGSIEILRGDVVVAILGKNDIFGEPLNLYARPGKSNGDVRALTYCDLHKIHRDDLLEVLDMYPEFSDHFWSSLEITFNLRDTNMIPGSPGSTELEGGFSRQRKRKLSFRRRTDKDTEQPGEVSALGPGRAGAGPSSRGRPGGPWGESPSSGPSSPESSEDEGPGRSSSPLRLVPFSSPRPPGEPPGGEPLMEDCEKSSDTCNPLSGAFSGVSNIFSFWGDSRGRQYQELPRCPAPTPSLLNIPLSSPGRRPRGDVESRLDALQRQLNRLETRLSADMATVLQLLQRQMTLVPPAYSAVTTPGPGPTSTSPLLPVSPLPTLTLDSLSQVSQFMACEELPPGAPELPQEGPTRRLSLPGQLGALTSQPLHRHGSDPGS

Row | SMILES | hERG current change (%, negative = inhibition) at 1uM [%]
1 | Cc1ccc(C(=O)Nc2sc(C(=O)N(C)C)c(C)c2C#N)cc1 | 11.6
2 | Cc1cccc(NC(=O)c2ccc(C3SCC(=O)N3CCc3ccccc3)cc2)c1C (centres unmarked) | 7.44
3 | COc1ccc(-n2nc(C(=O)NCC(=O)N3CCCCC3)c3ccccc3c2=O)c(OC)c1 | 15.2
4 | COc1ccc(CN(C)c2nc(-c3cccnc3)nc3ccccc23)cc1OC | 25.3
5 | CC(=O)NN1CCc2cc3ccc(C)cc3nc21 | 6.95
6 | CCCNC(=O)c1cc(-c2ccccc2)c(N2CCCCC2)s1 | 16.8
7 | CCOC(=O)c1c(-c2cccs2)csc1N | 17
8 | COc1cccc(N2CCN(c3ccc([N+](=O)[O-])cn3)CC2)c1 | 12
9 | COC(=O)C(=C/C=C/c1cccnc1)C(=O)OC | 16.6
10 | COC(=O)c1ccc(NC(=O)c2ccc(CN3CCOCC3)cc2)cc1 | 4.41
11 | CCN1CCN(C(c2ccc(OC)cc2)C(O)C(=O)c2c[nH]c3ccccc23)CC1 (centres unmarked) | -64.4
12 | COc1cccc(N2CCN(C3OC(=O)c4ccccc43)CC2)c1 (centres unmarked) | -8.54
13 | Cl.Clc1cccc(Cl)c1CNCCCSc1ncccn1 | 6.67
14 | CC(=O)OC1(Cc2ccccc2)CN2CCC1c1ccccc12.Cl (centres unmarked) | 4.89
15 | Cc1ccc2c(c1)N(CCC(=O)NCCCN1CCCC1)C(=O)CO2 | 11.8
16 | O=c1cccc2n1C[C@@H]1C[C@@H]2CN(CC(O)c2ccc([N+](=O)[O-])cc2)C1 (some centres unmarked) | -2.18
17 | COc1ccc(OC)c(/C=C/c2ccc3cccc(O)c3n2)c1 | 17.3
18 | O=C(Nc1cccc(Cl)c1)C1CC1c1ccccc1 (centres unmarked) | 5.08
19 | COc1ccc(S(=O)(=O)N2CCC(C(=O)NCC3CCCCC3)CC2)cc1 | 6.42

Row | SMILES | hERG current change (%, negative = inhibition) at 1uM [%]
20 | O=C(O)C(O)C(O)C(=O)O.O=C(c1ccc(F)cc1)C1CCN(CCn2c(=O)[nH]c3ccccc3c2=O)CC1 | -9.52
21 | COc1ccc(C(=O)CN2C(=O)C(C)(C)Oc3ccc(C(=O)N4CCCCCC4)cc32)cc1 | 4.11
22 | CCN(CC)S(=O)(=O)c1ccc(Cl)c(C(=O)OCC(=O)c2c(N)n(C)c(=O)n(C)c2=O)c1 | 1.11
23 | COc1ccc(OC)c(C2C(C(C)=O)=C(O)C(=O)N2c2ccc(F)cc2)c1 (centres unmarked) | 12.7
24 | O=C(O)CSc1nc2sc3c(c2c(=O)n1-c1ccccc1)CCC3 | 18
25 | COc1ccc(C2CC(=O)C=C(O)C2)cc1 (centres unmarked) | -3.04
26 | Cc1onc(-c2c(F)cccc2Cl)c1C(=O)N1CCOC12CCCCC2 | -4.95
27 | CN(Cc1ccccc1)C(=O)Cn1c(=O)oc2cc(S(=O)(=O)N3CCCC3)ccc21 | 15.2
28 | CC(c1n[nH]c(=S)n1-c1ccc(Cl)cc1)N(C)C (centres unmarked) | 6.29
29 | c1ccc(-n2c3ccccc3c3ccccc32)cc1 | 20.5
30 | O=c1c2ccccc2nc(Cc2ccccc2)n1-c1cccc(O)c1 | 2.73
31 | Cc1ccn(-c2n[nH]c(C)c2[N+](=O)[O-])n1 | 16.5
32 | O=C(c1ccc(Cl)cc1)c1c[nH]c(C(=O)NNc2ccccc2)c1 | 13.4
33 | Cc1[nH]c2ccc(OC(F)(F)F)cc2c1CCNCc1cccc([N+](=O)[O-])c1 | 1.7
34 | O=C1CN(C(=O)/C=C/c2ccco2)c2ccccc2N1 | -9.24
35 | O=c1[nH]c(C2CCCN(S(=O)(=O)c3ccccc3)C2)nc2c1nnn2Cc1ccccc1F (centres unmarked) | 7.47
36 | CCCC(=O)NC(c1ccccc1Cl)c1c(O)ccc2ccccc12 (centres unmarked) | 12.3
37 | CCN1CCN(c2ncnc3scc(-c4ccc(OC)cc4)c23)CC1 | -18.4
38 | CCOc1ccc(N2CC(C(=O)Nc3nnc(CC)s3)CC2=O)cc1 (centres unmarked) | -27.1

Row | SMILES | hERG current change (%, negative = inhibition) at 1uM [%]
39 | CC(C)N(C(=O)C1CC(=O)OC12CCCCC2)C(C)C (centres unmarked) | -6.26
40 | Cc1ccsc1/C=N/NC(=O)CNC(=O)c1c(F)cccc1Cl | 17.7
41 | COc1ccc(C2=NNC(c3cccs3)=Nc3ccc(OC)cc32)cc1 | 15.4
42 | CCCN(CCC)S(=O)(=O)c1ccc(NS(=O)(=O)c2ccc(F)cc2)cc1 | 7.38
43 | CN(C)Cc1c(C(=O)N/N=C/c2ccco2)nnn1-c1nonc1N | 0.524
44 | O=S(=O)(Nc1ccc(F)cc1)c1cccc2nsnc12 | 9.02
45 | CN(C)c1ccc(-c2nnc(-c3cccnc3)o2)cc1 | 10.5
46 | COc1ccc(CN(Cc2ccco2)S(=O)(=O)c2ccc(S(=O)(=O)N3CCCC3)cc2)cc1 | -4.56
47 | Cc1cc(NS(=O)(=O)c2ccc(NC(=O)COc3c(C)cc(Br)cc3C)cc2)no1 | 13.5
48 | COCCN(C(=O)C1CC(=O)N(Cc2ccccc2)C1)c1nc(-c2ccc([N+](=O)[O-])cc2)cs1 (centres unmarked) | 11.1
49 | Cc1cc(Nc2cccc(Cl)c2C)n2ncnc2n1 | 2.24
50 | O=C(c1ccoc1)N1CCCC(N2CCN(c3cccc(C(F)(F)F)c3)CC2)C1 (centres unmarked) | -10.9
51 | CN(C)C(CNC(=O)c1ccc(-c2ccccc2)cc1)c1ccccc1 (centres unmarked) | 8.72
52 | CCOc1ccccc1Oc1cn[nH]c1-c1ccc(OCC(=O)NN)cc1O | 3.99
53 | CC(=O)OCc1cc(-c2nn(C)c(=O)c3ccccc23)ccc1C | 7.01
54 | Cc1ccc(CNC(=O)c2cc(COc3c(F)cccc3F)on2)s1 | 9.34
55 | O=c1cc(Cl)c2ccccc2n1-c1ccccc1 | 14.7
56 | O=[N+]([O-])c1ccc(Cl)c(CN2CCC(O)CC2)c1 | 4.66
